# Measured values as given in PubChem BioAssay AID686978 (National Center for Advancing Translational Sciences (NCATS), 2013).
# The whole screen tested about 420,000 compounds, of which about 64,000 (15%) were called active. The shares of active, inactive and inconclusive entries below differ from those in the screen. Calls follow the shape of the dose curve; as a rule, active = well fitted inhibition curve with a large enough effect; inconclusive = small, poorly fitted or top-dose-only effect; inactive = flat fitted curve, though single readings scatter. No potency is given beside an inconclusive call; the fits are too rough.
# Test: qHTS for Inhibitors of human tyrosyl-DNA phosphodiesterase 1 (TDP1): qHTS in cells in absence of CPT; also: nearly all actives have a fitted effect of over 55% in size
# Conditions: DT40 Tdp1-/- hTDP1 cells, no CPT, ATP luminescence, 48 h; activity change, negative = growth inhibition: at 46.2 µM (top of the series) unless noted
# Method in brief: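 Stably hTDP1-transfected Tdp1-null chicken DT40 cells were treated with library compounds minus camptothecin and grown for at least 48 hr at 37 °C, after which cellular ATP was quantified by luminescence.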
# % is scaled to controls: 0 for no effect and ±100 for the full control effect; potency is read from the fitted curve at half-maximal effect; tags tell the direction and shape of the fitted curve.
Structure (SMILES),Potency,"activity change, negative = growth inhibition"
CCN(CC)c1c(C)nc2ccc(C(=O)Nc3cc(-c4ccccc4)ccc3OC)cn12,active: 18.4 µM,
COc1ccc(C(=O)OCCNC(=O)c2c(Cl)nc3ccccn23)cc1,"inconclusive [inhibitor, partial curve, poor fit]",
COc1cccc(C(=O)CC(=O)C(=O)Nc2ccc([N+](=O)[O-])cc2C)c1,"inconclusive [inhibitor, single point]",
COc1ccc(N2CCN(C(=O)c3ccc(COc4ccc([N+](=O)[O-])cc4)o3)CC2)cc1,active: 10.3 µM,
O=C(CNC(=O)c1ccccc1F)OCc1nc2ccccc2s1,,inactive: -10.8%
Cc1ccccc1C(=O)Nc1ccc(C(=O)N/N=C/c2ccc(F)cc2)cc1,"inconclusive [inhibitor, partial curve]",
Cc1sc2nc(C3CC3)nc(N3CCN(S(=O)(=O)c4ccc(F)cc4)CC3)c2c1C,active: 11.2 µM,
CCOc1ccc(-c2c(C)nn3c(C)c(C(=O)Nc4cc(C)cc(C)c4)cnc23)cc1OCC,"inconclusive [inhibitor, partial curve]",
CC(=O)[C@@H]1[C@@H](C)N(Cc2ccccc2)C(=O)N[C@H]1c1cccc(C(F)(F)F)c1,,inconclusive: -32.1% [inhibitor]
Cc1noc(/C=C/c2ccccn2)c1[N+](=O)[O-],active: 20.6 µM,
COc1ccccc1P(=O)(Cc1ccccc1)c1ccccc1 (stereo unspecified),"inconclusive [inhibitor, single point]",
Cc1ccc(CN(C(=O)COc2cc(C)c(Cl)c(C)c2)c2ccccn2)o1,active: 18.4 µM,
CC(Sc1nc2ccccc2c(=O)n1CC1CCCO1)C(=O)N(C)c1ccccc1 (stereo unspecified),active: 5.8 µM,
CCOc1ccc(-c2nc(N)ncc2Oc2cccc(OC)c2)c(O)c1,active: 18.4 µM,
CCCCCNc1ncnc2c(C)[nH]nc12,active: 23.1 µM,
COc1cc(CNC2CCCCC2OC)cc(OC)c1 (stereo unspecified),,inconclusive: -37.4% [inhibitor]
Clc1ccc(OCCCCCN2CCOCC2)cc1,"inconclusive [inhibitor, partial curve]",
Cc1cc(C)cc(OCc2nnc(SCC(=O)c3ccc(Br)cc3)o2)c1,"inconclusive [inhibitor, partial curve]",
COc1cc(C(=O)NCCCc2ccccc2)cc(OC)c1OC,,inactive: -39.3%
COc1ccccc1/C=C/C(=O)N1CCC(c2ccccc2)C1 (stereo unspecified),"inconclusive [inhibitor, single point]",
COc1cc(C)nc(NCc2ccccc2)n1,"inconclusive [inhibitor, single point]",
